Reference: the supplement of paper PMC11181314
The other results are listed elsewhere or left out. Single values of this set are uncertain.

System: U2OS
Experiment: Cell Painting induction (percent of morphological features significantly changed vs DMSO); higher = stronger morphological change
Conditions: 10 µM, 20 h
Method: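 Cell Painting assay in U2OS cells: compounds at 10 µM for 20 h, six dyes, 579 robust CellProfiler features as Z-scores vs DMSO median (MAD). Induction is the % of significantly changed features (active if ≥5%); relative cell count is in % of DMSO. The primary run holds DCM compounds preselected for induction ≥10%; the confirmation repeat defines active compounds (370 of 549). Replicate agreement is low, attributed to precipitation.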

[1] = run: primary screen (compounds selected for induction >=10%)
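Note: stains mark DNA, RNA and nucleoli, ER, actin, Golgi, plasma membrane and mitochondria, read by high-content imaging, with DMSO controls at matching solvent concentration.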

CCNC(=S)N(CCc1c(C)[nH]c2ccc(C)cc12)Cc1cccnc1
Cell Painting induction (run: confirmation repeat): active: 18%
Cell Painting induction [1]: 12.8%

COc1ccc(N2CCN(CCCNC(=O)c3ccc(CS(=O)(=O)c4ccc(Cl)cc4)o3)CC2)cc1
Cell Painting induction (run: confirmation repeat): active: 30.9%
Cell Painting induction [1]: 31.6%

O=C(CN1C(=O)/C(=C/c2ccccc2)Sc2ccccc21)NCCCN1CCOCC1
Cell Painting induction (run: confirmation repeat): active: 19.7%
Cell Painting induction [1]: 15.4%

CCOc1ccc(NC(=S)NCCCN2CCN(C3CCCCC3)CC2)cc1
Cell Painting induction (run: confirmation repeat): active: 19.5%
Cell Painting induction [1]: 34.5%

CCOc1ccc(Oc2nc(Nc3ccc(C)cc3)nc(N(C)C)n2)nn1
Cell Painting induction (run: confirmation repeat): inactive: 4.5%
Cell Painting induction [1]: 11.1%

COC(CNC(=O)c1ccc2c(=O)n(Cc3ccc(Cl)cc3)c(=S)[nH]c2c1)OC
Cell Painting induction (run: confirmation repeat): active: 46.6%
Cell Painting induction [1]: 40.6%

CCC1CCCCN1CCCNC(=O)Cn1ncc2c3cc(C)ccc3nc-2c1O (stereo unspecified)
Cell Painting induction (run: confirmation repeat): inactive: 2.2%
Cell Painting induction [1]: 12.4%

Cc1ccc(S(=O)(=O)NCC(c2ccccc2)N2CCCCC2)cc1 (stereo unspecified)
Cell Painting induction (run: confirmation repeat): inactive: 2.2%
Cell Painting induction [1]: 14.5%

CCOc1cc(C2/C(=C(\O)OCCOC)C(C)=Nc3nc4ccccc4n32)ccc1O (stereo unspecified)
Cell Painting induction (run: confirmation repeat): inactive: 1.7%
Cell Painting induction [1]: 10.4%

COC(=O)c1cc(S(=O)(=O)NCC2CCN(Cc3cc(C)ccc3C)CC2)cn1C
Cell Painting induction (run: confirmation repeat): active: 11.6%
Cell Painting induction [1]: 12.4%

COC(=O)c1c(NC(=O)C2c3ccccc3Oc3ccccc32)sc(C)c1C
Cell Painting induction (run: confirmation repeat): active: 10.7%
Cell Painting induction [1]: 21.2%

COc1ccc(Br)cc1C(=O)Nc1ccc(NC(=O)c2ccco2)cc1
Cell Painting induction (run: confirmation repeat): active: 33%
Cell Painting induction [1]: 48%

CC1CCCN(CCCNC(=O)c2cn(C)c3ccc(S(=O)(=O)N(C)C4CCCCC4)cc3c2=O)C1 (stereo unspecified)
Cell Painting induction (run: confirmation repeat): active: 76.5%
Cell Painting induction [1]: 57.9%

Cc1cc2oc(C(=O)NCC(c3ccco3)N3CCCC3)c(C)c2cc1C (stereo unspecified)
Cell Painting induction (run: confirmation repeat): active: 45.6%
Cell Painting induction [1]: 52.8%

CCC1CCCCN1CCCNC(=O)CN1C(=O)CSc2ccc(S(=O)(=O)N3CCC(C)CC3)cc21 (stereo unspecified)
Cell Painting induction (run: confirmation repeat): active: 23.1%
Cell Painting induction [1]: 44%

CC(=O)c1c(N2CCN(c3ccc(F)cc3)CC2)nc(=S)n(Cc2ccccc2)c1C
Cell Painting induction (run: confirmation repeat): inactive: 1.9%
Cell Painting induction [1]: 10.4%

CCOc1ccc(S(=O)(=O)N2CCN(CC)CC2)cc1NC(=O)c1ccccc1F
Cell Painting induction (run: confirmation repeat): active: 19.9%
Cell Painting induction [1]: 14.7%

CCOC(=O)c1ccc(NC2c3ccccc3C(=O)N2c2ccccn2)cc1 (stereo unspecified)
Cell Painting induction (run: confirmation repeat): inactive: 3.1%
Cell Painting induction [1]: 20%

Cc1ccc(/C=C/c2onc(C)c2S(=O)(=O)N2CCC(C(=O)N3CCCCC3)CC2)cc1
Cell Painting induction (run: confirmation repeat): active: 34.2%
Cell Painting induction [1]: 32%

CC1CCCN(C(=O)c2ccc3c(=O)n4nc(Nc5ccccc5)sc4nc3c2)C1 (stereo unspecified)
Cell Painting induction (run: confirmation repeat): inactive: 0.9%
Cell Painting induction [1]: 14.7%

CCOc1ccc(NC(=O)c2nnn(CC(=O)Nc3ccccc3OCC)c2N)cc1
Cell Painting induction (run: confirmation repeat): active: 11.6%
Cell Painting induction [1]: 21.1%

COc1ccc(NC(=O)c2nnn(-c3ccc(OC)c(Cl)c3)c2C)c(OC)c1
Cell Painting induction (run: confirmation repeat): inactive: 0.5%
Cell Painting induction [1]: 40.9%

CC1CCN(S(=O)(=O)c2ccc3c(c2)N(CC(=O)NCCCN2CC(C)CC(C)C2)C(=O)CS3)CC1 (stereo unspecified)
Cell Painting induction (run: confirmation repeat): active: 51.8%
Cell Painting induction [1]: 53.7%

CCOc1cccc(C(=O)Nc2ccc3oc(-c4cccnc4)nc3c2)c1
Cell Painting induction (run: confirmation repeat): active: 71.3%
Cell Painting induction [1]: 59.6%

O=S(=O)(NCC(c1ccco1)N1CCN(c2ccccc2F)CC1)c1ccc2c(c1)OCCO2 (stereo unspecified)
Cell Painting induction (run: confirmation repeat): active: 12.4%
Cell Painting induction [1]: 15.9%

CCCn1c2ccccc2c2cnn(CC(=O)NC3CCN(Cc4ccccc4)CC3)c(=O)c21
Cell Painting induction (run: confirmation repeat): active: 28.7%
Cell Painting induction [1]: 30.2%

CCOC(=O)C(C)Sc1nc(O)c2cnn(-c3ccc(F)cc3)c2n1 (stereo unspecified)
Cell Painting induction (run: confirmation repeat): inactive: 1.6%
Cell Painting induction [1]: 13.1%

CC1CCN(c2c(NCc3ccc(C(=O)NCCc4ccc(Cl)cc4)cc3)c(=O)c2=O)CC1
Cell Painting induction (run: confirmation repeat): active: 14.7%
Cell Painting induction [1]: 27.1%
